B1: REGN15869 ATL (conjugate)
heavy: [about 100 residues left out here]GLIAPRPMGFDYWGQGTLVTVSSASTKGPSVFPLAPCSRSTSESTAALGCLVKDYFPEPVTVSWNSGALTSGVHTFPAVLQSSGLYSLSSVVTVPSSSLGTKTYTCNVDHKPSNTKVDKRV[human IgG4 Fc with S228P (EU numbers) left out here]
light: LLQGSGDIQMTQSPSSVSASVGDRVTITCRASQGINSWLAWYQQKPGKAPKLLIYAASSLESGVPSRFSGSGSGTDFTLTISSLQPEDFATYYCHQADSFPYTFGQGTKLEIKRTVAAPSVFIFPPSDEQLKSGTASVVCLLNNFYPREAKVQWKVDNALQSGNSQESVTEQDSKDSTYSLSSTLTLSKADYEKHKVYACEVTHQGLSSPVTKSFNRGEC
B2: REGN7988 unconjugated Ab (antibody)
heavy: QVQLVESGGGVVQPGRSLRLSCAASGFTFSGYGIHWVRQAPGKGLVWVAVIWYDGSFKYYADSVKGRFTISRDNSKNTLYLQMNSLRAEDTAVYYCARGDSSSSGRYYYYGMDVWGQGTTVTVSSASTKGPSVFPLAPCSRSTSESTAALGCLVKDYFPEPVTVSWNSGALTSGVHTFPAVLQSSGLYSLSSVVTVPSSSLGTKTYTCNVDHKPSNTKVDKRV[human IgG4 Fc with S228P (EU numbers) left out here]
light: LLQGSGDIQMTQSPSSLSASVGDRVTITCRASQGIRNDLGWYQQKPGTAPKRLIFAASSLQSGVPSRFSGSGSGTEFTLTISSLQPEDFATYYCLQHNNYPPTFGGGTKVEIKRTVAAPSVFIFPPSDEQLKSGTASVVCLLNNFYPREAKVQWKVDNALQSGNSQESVTEQDSKDSTYSLSSTLTLSKADYEKHKVYACEVTHQGLSSPVTKSFNRGEC

Assays:
HEK293/CRE-Luc cells [1] = assay: Flow cytometry cell binding, parental HEK293/CRE-Luc (Example 24); design: species or system human; conditions: Table 39; parental cells lacking GLP1R; signal to noise
Experimental: ATL and mAb binding to cells was assessed by flow cytometry. Briefly, 95,000-540,000 cells were suspended in staining buffer (PBS+2% FBS+0.2% sodium azide) in 96-well, V-bottom plates (Axygen, #P-96-450V-C-S) and incubated for 30 minutes at 4° C. with serial dilutions of the anti-GLP1R ATLs, non-binding control ATL, or unconjugated antibodies. […] Cells were then washed once and stained with a cell viability dye (Live/dead Fixable Green Dead Cell Stain Kit for 488 nm excitation, Molecular Probes, #L34970) at 1× in PBS for 20 minutes at 4° C. Cells were washed once in staining buffer, fixed for 20 minutes at 4° C. using a 50% solution of Cytofix (BD Biosciences, #554655) diluted in PBS, and washed again in staining buffer. Samples were filtered through 96-well filter plate (Pall Laboratory, #8027) and collected in 96-well, U-bottom plate (Falcon, #351177). Samples were run on the iQue Screener PLUS cytometer (IntelliCyt) and results were analyzed using Forecyte analysis software (IntelliCyt) to calculate the geometric mean fluorescence intensity (MFI) after gating for live cells. […] EC50 values were determined using a four-parameter logistic equation over an 8- or 12-point dose response curve (GraphPad Prism), and the signal to noise (S/N) was determined by taking the ratio of the highest MFI on the dose response curve to the MFI in the secondary alone wells. […]

human GLP1R [2] = molecular target: T1, human GLP1R (Homo sapiens, UniProt P43220); assay: b-arrestin 2 recruitment assay, PathHunter CHO/b-arrestin 2/hGLP1R cells; format: cell-based; conditions: Table 40, maximum signal relative to GLP-1
Experimental: The b-arrestin 2 recruitment assay was performed following manufacter's instructions (Eurofins DiscoverX, #93-0300E2CP0M), with minor modifications. […] Serial dilutions of free payload and LP were performed in 100% DMSO, followed by 1:100 dilution in assay media. Test articles were added to cells (1:5 dilution) with the last well in each serial dilution series serving as a blank control containing only assay media for antibodies and ATLs or assay media with 0.2% DMSO for payload and LP. After a 90-minute incubation at 37° C., PathHunter Detection Reagent (Eurofins DiscoverX, #93-0300E2CP0M) was added to the wells followed by a 1-hour incubation at room temperature. RLUs were measured on EnVision Plate Reader (Perkin Elmer).
(§1) EC50 values for luminescence assays were determined using a four-parameter logistic equation over a 12-point dose response curve (GraphPad Prism).

human GLP1R [3] = molecular target: T1, human GLP1R; assay: CRE-Luc cAMP reporter assay, HEK293/CRE-Luc/hGLP1R (Example 24); format: cell-based; design: engineered to express full-length human GLP1R, cynomolgus GLP1R; expressed in transfected cells; host or cells: HEK293/CRE-Luc; conditions: Table 40; maximum signal relative to GLP-1
Description: To test the activity of GLP1R agonist payloads, GLP1R agonist linker-payloads (LPs), and anti-GLP1R antibody-tethered ligands (ATLs) of the invention, a cell-based cAMP responsive luciferase reporter assay was developed. To generate the assay cell line, the firefly luciferase gene was placed under the control of a cAMP response element (CRE) located upstream of a minimal promoter and transfected into HEK293 cells and referred to herein as HEK293/CRE-Luc cells. HEK293/CRE-Luc cells were then engineered to express full-length human GLP1R (HEK293/CRE-Luc/hGLP1R), cynomolgus GLP1R (HEK293/CRE-Luc/mfGLP1R), or mouse GLP1R (HEK293/CRE-Luc/mGLP1R).
Serial dilutions of free payload and linker payloads (LP) were performed in 100% DMSO (ATCC, #4-X-5), followed by 1:100 dilution in assay media. Test articles were added to cells (1:5 dilution) with the last well in each serial dilution series serving as a blank control containing only assay media for antibodies and ATLs or assay media with 0.2% DMSO for payloads and LPs. After a 5-hour incubation at 37° C., luciferase activity was determined by addition of ONE-Glo reagent (Promega, #E6130) followed by measurement of relative light units (RLUs) on an EnVision Plate Reader (Perkin Elmer).
as §1

cynomolgus GLP1R = molecular target: T2, cynomolgus GLP1R (Macaca fascicularis, UniProt F8V479); assay: Flow cytometry cell binding, HEK293/CRE-Luc/mfGLP1R (Example 18); conditions: Table 30
T2 construct: engineered to express full-length human GLP1R, cynomolgus GLP1R; expressed in transfected cells; host or cells: HEK293/CRE-Luc
Experimental: (§2) GLP1R agonist linker payloads were conjugated to anti-GLP1R antibodies via N-terminal heavy or light chain Glutamine (Q) tags. […] The cell surface binding of the anti-GLP1R ATDCs to human GLP1R (HEK293/CRE-Luc/hGLP1R), cynomolgus GLP1R (HEK293/CRE-Luc/mfGLP1R), and control cells lacking expression of GLP1R (HEK293/CRE-Luc) was assessed via flow cytometry. […] The last well in each row of the plate served as a blank control containing only secondary antibody and was plotted as a continuation of the 3-fold serial dilution. […] Samples were filtered through Pall 96 well plate PP/PE mesh filter system and collected in Costar 96 well plate. Samples were run on the iQue flow cytometer (Intellicyte) and results were analyzed using Forecyte analysis software (Intellicyte) to calculate the mean fluorescent intensity (MFI) after gating for live cells. EC50 values were determined using a four-parameter logistic equation over a 10-point dose response curve (GraphPad Prism). The signal to noise (S/N) was determined by taking the ratio of the highest MFI on the dose response curve to the MFI in the secondary alone wells.

HEK293/CRE-Luc cells [4] = assay: Flow cytometry cell binding, HEK293/CRE-Luc control cells (Example 18); design: species or system human; conditions: Table 30, control cells lacking GLP1R
Experimental: GLP1R agonist linker payloads were conjugated to anti-GLP1R antibodies via N-terminal heavy or light chain Glutamine (Q) tags. Several resulting anti-GLP1R-GLP1R agonist antibody tethered drug conjugates (ATDCs) and their unconjugated parental antibodies were tested for cell-based binding activity. The cell surface binding of the anti-GLP1R ATDCs to human GLP1R (HEK293/CRE-Luc/hGLP1R), cynomolgus GLP1R (HEK293/CRE-Luc/mfGLP1R), and control cells lacking expression of GLP1R (HEK293/CRE-Luc) was assessed via flow cytometry. For the assay, 61,000-230,000 cells were suspended in PBS, w/2% FBS and 0.2% sodium azide (staining buffer) in 96 well V-bottom plates and incubated for 30 minutes at 4° C. with three-fold serial dilutions of the anti-GLP1R ATDCs, non-binding control ATDCs, or unconjugated anti-GLP1R antibodies. The last well in each row of the plate served as a blank control containing only secondary antibody and was plotted as a continuation of the 3-fold serial dilution. […] Cells were then washed once and stained with a cell viability dye (Live/dead Fixable Green Dead Cell Stain Kit for 488 nm excitation, Molecular Probes cat #L34970) at 1× in PBS for 20 minutes at 4° C. Cells were washed once in staining buffer, fixed for 20 minutes at 4° C. using a 50% solution of Cytofix (BD Biosciences, Cat #554655) diluted in PBS, and washed again in staining buffer. Samples were filtered through Pall 96 well plate PP/PE mesh filter system and collected in Costar 96 well plate. Samples were run on the iQue flow cytometer (Intellicyte) and results were analyzed using Forecyte analysis software (Intellicyte) to calculate the mean fluorescent intensity (MFI) after gating for live cells. EC50 values were determined using a four-parameter logistic equation over a 10-point dose response curve (GraphPad Prism). The signal to noise (S/N) was determined by taking the ratio of the highest MFI on the dose response curve to the MFI in the secondary alone wells.

human GLP1R [5] = molecular target: T1, human GLP1R; assay: Flow cytometry cell binding, HEK293/CRE-Luc/hGLP1R (Example 18); design: engineered to express full-length human GLP1R, cynomolgus GLP1R; expressed in transfected cells; host or cells: HEK293/CRE-Luc; conditions: Table 30, experiments A, C, D
Experimental: as §2

T1 sequence (P43220 24-463): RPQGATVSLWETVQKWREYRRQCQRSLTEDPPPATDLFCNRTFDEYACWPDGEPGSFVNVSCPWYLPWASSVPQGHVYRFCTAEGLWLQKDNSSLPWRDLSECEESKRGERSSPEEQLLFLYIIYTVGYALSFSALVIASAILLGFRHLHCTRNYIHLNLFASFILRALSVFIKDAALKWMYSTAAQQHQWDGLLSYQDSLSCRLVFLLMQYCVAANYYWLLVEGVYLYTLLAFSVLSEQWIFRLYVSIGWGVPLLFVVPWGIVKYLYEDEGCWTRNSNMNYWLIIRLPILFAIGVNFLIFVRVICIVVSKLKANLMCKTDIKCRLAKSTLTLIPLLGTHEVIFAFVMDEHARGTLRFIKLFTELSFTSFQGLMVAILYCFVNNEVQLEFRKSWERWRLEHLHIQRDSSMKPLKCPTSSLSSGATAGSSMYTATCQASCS
T2 sequence (F8V479 24-463): as the sequence (P43220 24-463) above, with S112N, F120S, S202G, L205V, L237F, W241R, I249V counted along it

Molecule	HEK293/CRE-Luc Flow S/N (HEK293/CRE-Luc cells [1])	CHO/b-arrestin 2/hGLP1R Emax (% GLP-1) (human GLP1R [2])	HEK293/CRE-Luc/hGLP1R Emax (% GLP-1) (human GLP1R [3])	EC50 (cynomolgus GLP1R; flow cytometry cell binding, no unit printed in table (text reads values as M))	HEK293/CRE-Luc/mfGLP1R Flow S/N (cynomolgus GLP1R; signal to noise)	EC50 (HEK293/CRE-Luc cells [4]; no unit printed in table (text reads values as M))	HEK293/CRE-Luc Flow S/N (HEK293/CRE-Luc cells [4]; signal to noise)	EC50 (human GLP1R [5]; flow cytometry cell binding, no unit printed in table (text b1840 reads values as M))	HEK293/CRE-Luc/hGLP1R Flow S/N (human GLP1R [5]; signal to noise)
B1	19.1	110.9 % GLP-1	96.2 % GLP-1						
B2				0.662 nM	467.2	> 100 nM	9.2	1.89 nM	397.7

Reference: patent publication US20230330254A1 (Regeneron Pharmaceuticals, Inc., priority 2022, published 2023)
